Experimental data as given in PubChem BioAssay AID588855 (National Center for Advancing Translational Sciences (NCATS), 2011).
The whole screen tested about 410,000 compounds, of which about 5,000 (1.2%) were called active. The shares of active, inactive and inconclusive entries below differ from those in the screen. The call rests on the fitted dose curve; in most records, active means well fitted inhibition curve with a large enough effect; inconclusive means small, poorly fitted or top-dose-only effect; inactive means no such curve, though single readings can be large or run the other way. Potencies beside an inconclusive call are fits to weak or partial responses and may not hold up.
On the % scale 0 is the no-effect control and ±100 the full control effect; potency means the concentration at half of the fitted maximal effect; tags describe the fitted curve by direction and shape.

Test: qHTS for Inhibitors of TGF-b; further: nearly all actives have a fitted effect of over 65% in size
Settings: HepG2 CAGA-GFP TGF-b/SMAD3 reporter, GFP fluorescence, 18 h, TGF-beta stimulated, 500 pg/mL final; series mostly up to 46.1 µM; activity, negative = inhibition: at the top concentration
Procedure, shortened: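 TGF-beta reporter screen: HEPG2 CAGA-GFP, 1% FBS, 500 pg/mL TGF-beta final, 18 h; per-cell GFP summed per well; curves fitted and categorized by class.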
With `COc1ccc(/C=N/NC(=O)C2C(C=C(Cl)Cl)C2(C)C)c(OC)c1` (stereo not given) the “activity, negative = inhibition” value was inactive: -21.1%. In the case of `OC(c1ccccc1)(c1nc(-c2csc3ccccc23)cs1)C(F)(F)F` (stereo not given), the Potency was inconclusive: 22.4 µM [inhibitor, single point]. In the case of `Cc1ccc(-c2csc(NC(=O)C3=NN(c4ccccc4)C(=O)CC3)n2)cc1`, the “activity, negative = inhibition” value was inactive: -11.8%. In the case of `Cc1ccc2c(c1)C(c1ccccc1)N(C(=O)c1cccc([N+](=O)[O-])c1)CC(=O)N2` (stereo not given), the “activity, negative = inhibition” value was inactive: 6.21%. In the case of `Cc1cccc(Nc2cc(C)nc3nc(Cc4ccc(Cl)cc4)nn23)c1`, the Potency was inconclusive: 15.8 µM [inhibitor, partial curve, poor fit]. For `CCCOc1ccccc1C(=O)Nc1ccc(-c2nc3ccc(C)cc3s2)cc1`, the “activity, negative = inhibition” value was inactive: 5.89%. With `C[C@@H]1CC=C[C@H]2[C@H]1C(=O)N(Cc1ccccc1)[C@H]2c1ccc(-c2ccc(N(C)C)cc2)cc1F` the Potency was inconclusive: 0.355 µM [inhibitor, full curve, poor fit]. In the case of `COc1ccccc1N(/N=C1\Sc2ccccc2C1=O)C(C)=O`, the Potency was inconclusive: 10 µM [inhibitor, partial curve]. In the case of `Cc1cc(-c2ccccc2)nc2cc(C(=O)Nc3cc(C(F)(F)F)ccc3Cl)nn12`, the “activity, negative = inhibition” value was inactive: -4.82%. In the case of `COc1ccc(CNC(=O)c2ccc3c(Cl)c4c(nc3c2)CCCC4)c(OC)c1`, the Potency was inconclusive: 3.55 µM [inhibitor, partial curve, poor fit]. For `Clc1ccc(CN2CC[C@H]3C=CCc4cccc(c43)C2)cc1`, the “activity, negative = inhibition” value was inactive: -20.1%. In the case of `CN(C)c1c(Br)cc(C=O)cc1Br`, the “activity, negative = inhibition” value was inactive: -4.02%. For `O=C(Nc1ccc2nn(-c3ccccc3)nc2c1)c1ccc2c(c1)OCCO2`, the “activity, negative = inhibition” value was inactive: -24.2%. In the case of `Cc1cc(C)n2nc(SCN3C(=O)c4ccccc4C3=O)nc2n1`, the Potency was inconclusive: 0.251 µM [inhibitor, full curve, poor fit]. For `CCC(=O)NC(=S)Nc1cccc(Cl)c1N1CCCC1`, the Potency was inconclusive: 15.8 µM [inhibitor, single point]. In the case of `CC(Oc1ccccc1)C(=O)Nc1ccc(C(=O)OCc2cc(=O)n3ccsc3n2)cc1` (stereo not given), the Potency was inconclusive: 12.6 µM [inhibitor, single point]. In the case of `COc1ccc2nc(Sc3c([N+](=O)[O-])nc(C)n3Cc3ccccc3)[nH]c2c1`, the Potency was inconclusive: 35.5 µM [inhibitor, single point]. For `N#Cc1nc(/C=C/c2ccc(F)cc2)oc1N1CCCCC1`, the Potency was inconclusive: 15.8 µM [inhibitor, partial curve, poor fit]. For `CN(/N=C/c1ccc([N+](=O)[O-])o1)c1ccccc1`, the Potency was inconclusive: 17.8 µM [inhibitor, single point]. With `CCCCNc1ccc2c(c1)C1CC2CCN1C(=O)OCc1ccccc1` (stereo not given) the Potency was inconclusive: 31.6 µM [inhibitor, single point]. In the case of `CC1CCCCC1NC(=O)CSc1nnc(CC(=O)Nc2ccccc2F)n1C` (stereo not given), the “activity, negative = inhibition” value was inactive: 17.6%. In the case of `CNC(=O)c1c(NC(=O)CS(=O)(=O)c2ccc(Cl)cc2)sc(C)c1C`, the Potency was inconclusive: 14.1 µM [inhibitor, partial curve, poor fit]. For `Cc1ccc(Cl)cc1N1CCN(C(=O)c2cnn(-c3ccc(Cl)cc3)c2C2CCNCC2)CC1`, the Potency was inconclusive: 25.1 µM [inhibitor, single point]. In the case of `Cc1ccc(-c2ccc(SCC(=O)Nc3ccc4c(c3)OCCO4)nn2)cc1`, the Potency was active: 3.16 µM. In the case of `N#Cc1c[nH]n2c(NC3CCCC3)c(-c3ccc(Br)cc3)nc12`, the “activity, negative = inhibition” value was inactive: -24.3%. For `Cc1ccc(S(=O)(=O)Nc2ccc3c(c2)C(=O)N([C@H](C)CO)C[C@H](C)[C@H](CN(C)C(=O)Nc2cccc4ccccc24)OCCCC[C@@H](C)O3)cc1`, the “activity, negative = inhibition” value was inactive: 0.0097%. For `Cc1nnc(SC(C(=O)Nc2cc(Cl)cc(Cl)c2)c2ccccc2)[nH]c1=O` (stereo not given), the Potency was active: 17.8 µM. For `COc1ccc(Oc2cn[nH]c2-c2ccc(OC)cc2O)cc1`, the Potency was inconclusive: 17.8 µM [inhibitor, partial curve]. For `COc1ccc(NC(=O)c2cc(S(=O)(=O)Nc3ccc(OC)cc3)cs2)cc1`, the Potency was inconclusive: 12.6 µM [inhibitor, partial curve, poor fit]. With `O=C1c2ccccc2C(=O)c2c1ccc(C(=O)N1CCCCC1)c2NCCO` the Potency was inconclusive: 4.47 µM [inhibitor, single point]. In the case of `CC1CCc2cc(F)ccc2N1C(=O)CSc1nnc2c3ccccc3n(C)c2n1` (stereo not given), the “activity, negative = inhibition” value was inactive: -35.9%. With `CCOC(=O)c1cccc(NC(=O)C2CCCO2)c1` (stereo not given) the “activity, negative = inhibition” value was inactive: 1.74%. For `C[C@@H](NC(=O)c1nc[nH]c1C(=O)N[C@@H](CCCCNC(=O)OC(C)(C)C)C(=O)OC(C)(C)C)c1ccccc1`, the Potency was inconclusive: 25.1 µM [inhibitor, single point]. With `C=CCNC(=S)N/N=C/c1ccc(-c2cccc([N+](=O)[O-])c2)o1` the “activity, negative = inhibition” value was inactive: -0.147%. With `O=C(O)c1cccc(NC(=O)c2cccc(S(=O)(=O)Nc3cccc(F)c3)c2)c1` the “activity, negative = inhibition” value was inactive: 13.1%. For `CCCCCCCCC1=NCCc2c1[nH]c1ccccc21`, the Potency was inconclusive: 35.5 µM [inhibitor, single point]. With `O=C(COc1ccc(Br)cc1CNCCc1ccccc1)NCc1ccccc1` the Potency was inconclusive: 22.4 µM [inhibitor, single point]. In the case of `CCCC(c1nnnn1CC1CCCO1)N1CCN(c2nc3ccccc3s2)CC1` (stereo not given), the “activity, negative = inhibition” value was inactive: -1.13%. For `CCc1cc2c(=O)c(-c3ccc4c(c3)OCCO4)c(C)oc2cc1OS(C)(=O)=O`, the Potency was inconclusive: 6.31 µM [inhibitor, single point]. For `O=S(=O)(Nc1ccc(-c2ccc(N3CCCC3)nn2)cc1)c1ccccc1Cl`, the Potency was inconclusive: 0.251 µM [inhibitor, full curve, poor fit]. For `Cc1nc2sc(C(=O)Nc3ccccc3Cc3ccccc3)c(C)c2c(=O)[nH]1`, the “activity, negative = inhibition” value was inactive: 2.75%. In the case of `Cc1ccc(-n2c(SCC(N)=O)nc3c(oc4ccccc43)c2=O)cc1`, the Potency was “inactive”. For `Cc1nc2sc(C(=O)c3ccccc3)c(N)c2c2c1CCCC2`, the Potency was inconclusive: 20 µM [inhibitor, single point]. In the case of `Cc1cc(C(=O)Nc2ccccc2[N+](=O)[O-])cs1`, the Potency was inconclusive: 10 µM [inhibitor, partial curve]. For `O=C(COc1cccc(Cl)c1)N1CCC(c2nc3ccccc3s2)CC1`, the Potency was inconclusive: 15.8 µM [inhibitor, single point].
